The list shows a part of the results. Sequences were assembled here from the parent chain. Inactive controls read about 0.05.
B1: TEV protease; numbered along this chain (parent)
chain: MGESLFKGPRDYNPISSSICHLTNESDGHTTSLYGIGFGPFIITNKHLFRRNNGTLVVQSLHGVFKVKDTTTLQQHLVDGRDMIIIRMPKDFPPFPQKLKFREPQREERICLVTTNFQTKSMSSMVSDTSCTFPSGDGIFWKHWIQTKDGQCGSPLVSTRDGFIVGIHSASNFTNTNNYFTSVPKNFMELLTNQEAQQWVSGWRLNADSVLWGGHKVFMVKPEEPFQPVKEATQL

Variants of: B1
Experiment: raw area under fraction-flipped curve 0-4 h after induction (AUC4h, not background-subtracted), DNA-recorder readout of cleavage of the substrate (dimensionless); higher = more cleavage of the substrate by the protease variant
Conditions: temperature: 34 °C; time window: 0-4 h after rhamnose induction
Experimental: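 In vivo DNA recorder in E. coli TOP10(DE3) ΔrhaA at 34 °C. Each TEVp single-site mutant (parent TEVp 0) is paired with a single-site variant of the 7-mer TEVs (canonical ENLYFQ|S). The substrate sits between flexible linkers in a Bxb1-sfGFP-TEVs-SsrA fusion, so cleavage stabilises Bxb1 and speeds flipping of a recombination array, read by NGS. The value is the raw area under the fraction-flipped curve over 0-4 h after rhamnose induction (AUC4h), with ≥20 reads per time point. It is not background-subtracted; inactive controls average about 0.047.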
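Also: Bxb1 expression induced with 0.2% (w/v) L-rhamnose at OD600 near 0.5, cultures sampled hourly, flipped fraction per protease–substrate barcode pair counted by paired-end Illumina sequencing.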

Row | Variant | area with substrate ENAYFQS | area with substrate ENCYFQS | area with substrate ENDYFQS | area with substrate ENEYFQS | area with substrate ENFYFQS | area with substrate ENGYFQS | area with substrate ENHYFQS | area with substrate ENIYFQS | area with substrate ENKYFQS | area with substrate ENNYFQS | area with substrate ENPYFQS | area with substrate ENQYFQS | area with substrate ENSYFQS | area with substrate ENVYFQS | area with substrate ENYYFQS | area with substrate ENMYFQS | area with substrate ENRYFQS | area with substrate ENTYFQS | area with substrate ENWYFQS
1 | E103G | 0.0505 | 0.0614 | 0.043 | 0.0577 | 0.0636 | 0.0607 | 0.0536 | 0.0884 | 0.0532 | 0.0583 | 0.0644 | 0.0612 | 0.0648 | 0.0694 | 0.0748 |  |  |  | 
2 | P104D | 0.0356 |  | 0.0381 | 0.0467 | 0.0455 |  | 0.0512 | 0.0607 | 0.0535 | 0.0742 | 0.048 |  | 0.0446 | 0.0463 | 0.0525 | 0.0442 | 0.0587 | 0.0511 | 0.0502
3 | P104I | 0.0533 | 0.0485 | 0.0521 | 0.0603 | 0.0601 | 0.0598 | 0.0271 | 0.0607 | 0.0595 | 0.057 | 0.0644 | 0.0525 | 0.0615 | 0.0602 |  | 0.0588 | 0.0491 | 0.0569 | 
4 | P104L | 0.044 |  | 0.0636 | 0.0552 | 0.0511 | 0.0582 | 0.0543 | 0.0553 | 0.0531 | 0.056 |  | 0.0545 | 0.0546 | 0.0526 |  | 0.0448 | 0.037 | 0.0408 | 
5 | P104M | 0.0468 | 0.0573 |  | 0.0623 | 0.0558 |  | 0.0586 | 0.0692 | 0.0549 | 0.0527 | 0.0504 | 0.0548 | 0.0465 |  | 0.0395 |  |  |  | 
6 | P104T | 0.043 | 0.0667 | 0.0547 | 0.0547 | 0.0716 | 0.0593 |  |  |  |  | 0.0541 |  |  | 0.0589 | 0.0475 | 0.0481 | 0.0555 |  | 
7 | P104W | 0.0507 | 0.0507 | 0.0505 | 0.0483 | 0.0551 |  | 0.0485 |  | 0.0369 |  | 0.0529 | 0.0554 | 0.0541 | 0.0508 | 0.0438 | 0.0504 |  |  | 
8 | Q105F | 0.0482 |  | 0.0693 |  | 0.0591 | 0.0664 | 0.0772 | 0.093 |  |  | 0.0465 | 0.055 | 0.0393 | 0.0806 | 0.0531 | 0.0847 | 0.0584 | 0.0494 | 
9 | Q105W | 0.0525 | 0.0602 | 0.0599 | 0.0584 | 0.0619 | 0.0679 |  | 0.0992 | 0.0639 | 0.0739 | 0.0526 | 0.0802 | 0.0746 | 0.0767 |  |  | 0.0536 | 0.06 | 
10 | R106D | 0.0464 | 0.0921 | 0.0609 | 0.0579 | 0.0638 | 0.0505 | 0.0703 | 0.108 |  | 0.0652 | 0.0498 | 0.054 | 0.0568 | 0.0672 | 0.0676 | 0.0711 | 0.046 | 0.0634 | 0.0445
11 | L112F | 0.0742 | 0.0603 | 0.0603 | 0.0686 | 0.0694 | 0.0569 |  |  |  |  | 0.0597 | 0.0575 | 0.0666 | 0.0752 | 0.0586 | 0.0638 | 0.0638 | 0.0528 | 0.0512
12 | L112H | 0.0584 | 0.0654 | 0.0662 | 0.0649 | 0.0671 | 0.0764 |  | 0.0552 |  |  |  | 0.062 | 0.0644 | 0.0679 | 0.0556 |  | 0.0636 | 0.0764 | 

From the supplement of paper PMC12217912
